First the molecules themselves.
B1: DEGR-IXaR333L (enzyme)
chain 1: YNSGKLEEFVQGNLERECMEEKCSFEEAREVFENTERTTEFWKQYVDGDQCESNPCLNGGSCKDDINSYECWCPFGFEGKNCELDVTCNIKNGRCEQFCKNSADNKVVCSCTEGYRLAENQKSCEPAVPFPCGRVSVSQTSKLTR
chain 2: [omitted - about 250 residues with changes]
modifications: active site blocked with dansyl-Glu-Gly-Arg-chloromethyl ketone (DEGR-ck); gamma-carboxyglutamic acid residues in the Gla domain (11.5 to 12.5 per mol)
B2: DEGR-IXaT335A (enzyme)
chain 1: B1 chain 1
chain 2: [omitted - about 250 residues with changes]
modifications: active site blocked with dansyl-Glu-Gly-Arg-chloromethyl ketone (DEGR-ck); gamma-carboxyglutamic acid residues in the Gla domain (11.5 to 12.5 per mol)
B3: DEGR-IXaR338Q (enzyme)
chain 1: B1 chain 1
chain 2: [omitted - about 250 residues with changes]
modifications: active site blocked with dansyl-Glu-Gly-Arg-chloromethyl ketone (DEGR-ck); gamma-carboxyglutamic acid residues in the Gla domain (11.5 to 12.5 per mol)
B4: DEGR-IXaL337I (enzyme)
chain 1: B1 chain 1
chain 2: [omitted - about 250 residues with changes]
modifications: active site blocked with dansyl-Glu-Gly-Arg-chloromethyl ketone (DEGR-ck); gamma-carboxyglutamic acid residues in the Gla domain (11.5 to 12.5 per mol)
B5: DEGR-IXaR333Q (enzyme)
chain 1: B1 chain 1
chain 2: [omitted - about 250 residues with changes]
modifications: active site blocked with dansyl-Glu-Gly-Arg-chloromethyl ketone (DEGR-ck); gamma-carboxyglutamic acid residues in the Gla domain (11.5 to 12.5 per mol)
B6: DEGR-IXaL330I (enzyme)
chain 1: B1 chain 1
chain 2: [omitted - about 250 residues with changes]
modifications: active site blocked with dansyl-Glu-Gly-Arg-chloromethyl ketone (DEGR-ck); gamma-carboxyglutamic acid residues in the Gla domain (11.5 to 12.5 per mol)
B7: DEGR-IXaD332Y (enzyme)
chain 1: B1 chain 1
chain 2: [omitted - about 250 residues with changes]
modifications: active site blocked with dansyl-Glu-Gly-Arg-chloromethyl ketone (DEGR-ck); gamma-carboxyglutamic acid residues in the Gla domain (11.5 to 12.5 per mol)

The target of the first assay is T1, factor VIIIa (human, UniProt P00451 20-2351).
T1 sequence (looked up): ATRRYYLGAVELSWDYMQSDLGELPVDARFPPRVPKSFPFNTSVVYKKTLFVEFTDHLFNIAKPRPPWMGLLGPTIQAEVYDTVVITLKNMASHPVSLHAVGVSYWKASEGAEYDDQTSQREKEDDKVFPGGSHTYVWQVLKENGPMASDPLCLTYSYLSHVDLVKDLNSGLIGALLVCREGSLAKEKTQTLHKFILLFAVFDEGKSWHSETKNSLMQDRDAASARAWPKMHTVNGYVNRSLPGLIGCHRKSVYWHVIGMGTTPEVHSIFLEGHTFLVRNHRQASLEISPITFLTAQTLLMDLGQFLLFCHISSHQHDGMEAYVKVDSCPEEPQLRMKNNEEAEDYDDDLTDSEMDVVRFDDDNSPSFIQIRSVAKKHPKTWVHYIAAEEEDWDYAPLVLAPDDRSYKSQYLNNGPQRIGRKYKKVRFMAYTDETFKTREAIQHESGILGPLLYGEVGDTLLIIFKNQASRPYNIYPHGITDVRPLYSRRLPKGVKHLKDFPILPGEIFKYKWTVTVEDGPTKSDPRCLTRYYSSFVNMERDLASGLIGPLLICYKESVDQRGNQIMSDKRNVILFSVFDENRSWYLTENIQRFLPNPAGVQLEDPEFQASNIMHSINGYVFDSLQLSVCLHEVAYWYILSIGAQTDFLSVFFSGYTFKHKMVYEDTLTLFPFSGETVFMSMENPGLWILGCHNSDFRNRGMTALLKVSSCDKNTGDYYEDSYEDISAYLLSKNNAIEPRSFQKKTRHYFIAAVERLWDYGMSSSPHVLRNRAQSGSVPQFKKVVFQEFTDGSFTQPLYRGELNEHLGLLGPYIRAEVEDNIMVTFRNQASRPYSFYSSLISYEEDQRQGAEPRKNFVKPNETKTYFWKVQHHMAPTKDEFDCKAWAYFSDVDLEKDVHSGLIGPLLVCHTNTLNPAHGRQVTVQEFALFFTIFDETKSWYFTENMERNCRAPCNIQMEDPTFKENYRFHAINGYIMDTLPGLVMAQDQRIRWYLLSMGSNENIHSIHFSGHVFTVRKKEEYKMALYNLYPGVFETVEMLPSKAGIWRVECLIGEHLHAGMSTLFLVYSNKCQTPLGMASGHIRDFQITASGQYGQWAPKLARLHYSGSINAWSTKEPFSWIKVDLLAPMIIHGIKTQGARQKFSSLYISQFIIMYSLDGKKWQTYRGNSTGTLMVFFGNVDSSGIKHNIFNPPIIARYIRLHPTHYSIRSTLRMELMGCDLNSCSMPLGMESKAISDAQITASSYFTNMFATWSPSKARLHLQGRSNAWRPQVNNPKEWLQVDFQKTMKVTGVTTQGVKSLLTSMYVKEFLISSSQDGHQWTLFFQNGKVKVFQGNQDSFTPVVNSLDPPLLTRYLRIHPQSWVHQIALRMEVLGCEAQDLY
In words: Kd,app: DEGR-IXa protein competes with IXaWT for VIIIa, read as inhibition of Xa generation; without phospholipid.
B1 gave a Kd of 12700 nM.

As for B2, the Kd is 460 nM.

Consider B3, for which the Kd was determined as 210 nM.

Turning to B4, the Kd turned out to be 6180 nM.

Molecule B5 displayed a Kd of 7790 nM.

As to B6, the Kd is 720 nM.

Molecule B7 displayed a Kd of 5130 nM.

For another assay, the target named is T1, factor VIIIa. In words: Kd,app from inhibition of Xa generation; with phospholipid.
Regarding B1, the “fold-reduction in affinity compared with DEGR-IXaWT” value (“fold-reduction in affinity” below) came to 149 fold.

Turning to B4, the “fold-reduction in affinity” value came to 91 fold.

B5: the “fold-reduction in affinity” value was determined as 130 fold.

For B7, the “fold-reduction in affinity” value worked out at 52 fold.

Another assay addresses T1, factor VIIIa. In words: Kd,app from inhibition of Xa generation; without phospholipid.
B1: the “fold-reduction in affinity” value was determined as 67 fold.

Consider B4, for which the “fold-reduction in affinity” value turned out to be 32 fold.

Consider B5, for which the “fold-reduction in affinity” value stood at 41 fold.

As for B7, the “fold-reduction in affinity” value was found to be 27 fold.

The target in a further assay is T1, factor VIIIa. In words: Kd,app: DEGR-IXa protein competes with IXaWT for VIIIa, read as inhibition of Xa generation; with phospholipid.
Take B1: the Kd stood at 8.21 nM.

As to B2, the Kd was 0.14 nM.

As to B3, the Kd was determined as 0.077 nM.

For the molecule B4, the Kd amounted to 5.05 nM.

Turning to B5, the Kd came out at 7.15 nM.

Molecule B6 yielded a Kd of 0.23 nM.

Take B7: the Kd is 2.86 nM.

The target of the next assay is T1, factor VIIIa. In words: Kd,app from inhibition of Xa generation; in the presence or absence of phospholipid.
Consider B2, for which the “fold reduced affinity compared with DEGR-IXaWT” value was ~2.5 fold.

As to B6, the “fold reduced affinity compared with DEGR-IXaWT” value was ~4 fold.

(Values after patent publication US20040110688A1 (SAINT LOUIS UNIVERSITY, published 2004).)
